Assay results published in article PMC4336329 (PLoS ONE, 2015).
The whole screen tested about 310,000 compounds, of which about 14,000 (4.5%) showed an effect of 50% or more. The effect is printed as a negative number. Some of the results follow.

These compounds were tested against human ether-à-go-go-related gene (hERG) potassium channel (human, UniProt Q12809) (assay: primary screen, population patch clamp on CHO cells stably expressing hERG).
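Note: peak tail current of the secondary pulse compared with the same well before compound.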

Chain of human ether-à-go-go-related gene (hERG) potassium channel (Q12809 whole entry, looked up): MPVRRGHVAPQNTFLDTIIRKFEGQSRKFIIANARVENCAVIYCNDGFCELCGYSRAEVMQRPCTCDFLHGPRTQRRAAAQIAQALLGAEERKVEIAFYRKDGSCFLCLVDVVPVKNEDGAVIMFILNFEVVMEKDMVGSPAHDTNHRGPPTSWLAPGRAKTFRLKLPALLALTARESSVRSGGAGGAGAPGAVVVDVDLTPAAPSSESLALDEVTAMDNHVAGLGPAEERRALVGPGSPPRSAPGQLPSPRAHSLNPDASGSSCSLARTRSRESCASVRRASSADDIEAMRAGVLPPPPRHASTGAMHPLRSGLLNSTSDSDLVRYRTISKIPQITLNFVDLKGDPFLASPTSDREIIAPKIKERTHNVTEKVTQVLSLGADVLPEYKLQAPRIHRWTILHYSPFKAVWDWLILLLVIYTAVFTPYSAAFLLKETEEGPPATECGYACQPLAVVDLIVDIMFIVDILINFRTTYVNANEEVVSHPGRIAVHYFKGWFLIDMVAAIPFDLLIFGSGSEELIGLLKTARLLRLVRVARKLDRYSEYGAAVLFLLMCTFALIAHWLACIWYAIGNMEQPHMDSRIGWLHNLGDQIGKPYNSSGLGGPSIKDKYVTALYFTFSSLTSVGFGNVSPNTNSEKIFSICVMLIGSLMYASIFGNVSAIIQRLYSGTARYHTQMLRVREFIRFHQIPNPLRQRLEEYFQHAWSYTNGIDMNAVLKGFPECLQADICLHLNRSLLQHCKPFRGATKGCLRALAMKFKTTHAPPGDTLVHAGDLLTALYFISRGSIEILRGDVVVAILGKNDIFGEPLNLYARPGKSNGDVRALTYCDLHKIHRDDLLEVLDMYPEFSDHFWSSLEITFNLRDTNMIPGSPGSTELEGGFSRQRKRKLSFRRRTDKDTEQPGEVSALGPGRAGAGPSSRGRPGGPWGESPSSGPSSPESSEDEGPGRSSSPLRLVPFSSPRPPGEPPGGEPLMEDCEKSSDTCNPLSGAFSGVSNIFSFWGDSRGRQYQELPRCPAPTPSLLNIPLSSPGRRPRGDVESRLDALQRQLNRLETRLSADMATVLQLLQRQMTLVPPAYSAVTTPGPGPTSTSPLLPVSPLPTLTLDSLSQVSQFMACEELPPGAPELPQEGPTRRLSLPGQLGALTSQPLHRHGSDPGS

| Compound | hERG current change (%, negative = inhibition) at 10uM |
| --- | --- |
| CCOC(=O)c1cc(-c2ccc3c(c2)OCO3)nc2onc(C)c12 | 10.8% |
| CC1(C)CC(=O)C(Sc2ccccc2)=C(O)C1 | 15.8% |
| O=C(NCc1ccco1)/C(=C/c1ccco1)NC(=O)c1ccccc1 | 4.34% |
| CCC(=O)N(CCO)Cc1cc2ccc(C)c(C)c2[nH]c1=O | -11.4% |
| CC12CN3CC(C)(CN(C1)C3c1ccc(Cl)cc1)C2 (stereo not shown) | -1.13% |
| Cn1nc(C(=O)N2CCOCC2)c([N+](=O)[O-])c1C(=O)N1CCOCC1 | -54.4% |
| Nc1nc(Nc2ccccc2)sc1C(=O)c1ccccc1 | -17.6% |
| O=c1cc2oc3cc(O)c(O)cc3c(-c3ccccc3[N+](=O)[O-])c-2cc1O | 2.13% |
| CCOc1ccc(NS(=O)(=O)c2ccc3c(c2)CCN3C(=O)C2CCC2)cc1 | 3.92% |
| C[C@H](NC(=O)CCCOc1ccc(Cl)cc1Cl)c1nnc2ccccn12 | -39.2% |
| O=C(CCc1ccc(S(=O)(=O)N2CCOCC2)cc1)Nc1nccs1 | -5.94% |
| CCOC(=O)N1CCN(C(=O)CC(=O)Nc2ccc3nc4n(c(=O)c3c2)CCCCC4)CC1 | 10.6% |
| COc1ccccc1NC(=O)Cn1c(C)nc2c(sc(=S)n2Cc2ccco2)c1=O | -32.6% |
| Cc1ccc(Nc2nnc(SCC(=O)Nc3ncc(C(F)(F)F)cc3Cl)s2)cc1 | 4.68% |
| Cc1cc(C)nc(OC(C(=O)O)C(OCC(C)C)(c2ccccc2)c2ccccc2)n1 (stereo not shown) | 17.8% |
| COCC1CCN(C(=O)c2cc(COc3cc(C)c(Cl)c(C)c3)on2)C1 (stereo not shown) | 10.5% |
| CCn1c(C)cc(/C=C2/SC(=S)NC2=O)c1C | 13.7% |
| CC(=O)c1ccc(N2CCN(C(=O)c3cc(-c4cccnc4)nc4ccc(Br)cc34)CC2)cc1 | 2.5% |
| Cc1ccc(NC(=O)CCC(=O)N/N=C/c2cccs2)cc1C | -14.3% |
| CCCCNC(=O)COC(=O)c1ccc(Cl)c(S(=O)(=O)N2CCCC2)c1 | -26.6% |
| CCNS(=O)(=O)c1cc(OC)c(Cl)cc1OC | 14.5% |
| CCCC(=O)Nc1ccc(C#Cc2ccccc2)cc1 | 4.3% |

| Compound | hERG current change (%, negative = inhibition) at 10uM |
| --- | --- |
| COCCNc1oc(-c2cccs2)nc1S(=O)(=O)c1ccc(C)cc1 | -26.4% |
| CSc1nc(SCC(=O)O)c2c3c(sc2n1)COC(C)(C)C3 | -4.79% |
| O=C1C(Cl)=C(N2CCCCC2)C(=O)N1Cc1ccccc1 | 1.36% |
| Cc1ccc(C(=O)N(CCN(C)C)CC2CCCN(Cc3ccccc3F)C2)cc1C (stereo not shown) | 3.89% |
| Cc1cc(C)c(S(=O)(=O)NNC(=O)C2CCN(Cc3ccccc3)CC2)c(C)c1 | -14.4% |
| Cc1ccc(S(=O)(=O)CCC(=O)OCC(=O)c2cc(C)n(C)c2C)cc1 | -10.1% |
| COc1ccccc1C(CNC(=O)c1oc2ccccc2c1C)N1CCCC1 (stereo not shown) | -41.9% |
| COc1ccc(C(=O)NNC(=O)Cn2nnc(-c3ccc(OC)c(OC)c3)n2)cc1 | 0.747% |
| CCCC(C)NC(=O)Cc1ccccc1[N+](=O)[O-] (stereo not shown) | 2.52% |
| COC(=O)c1sc(S(=O)(=O)N2CCCCC2C)c(C(=O)OC)c1C (stereo not shown) | -26.9% |
| O=C(CSc1nc(C(F)(F)F)cc(=O)[nH]1)Nc1ccc2c(c1)OCCO2 | -10.4% |
| COC(=O)C1=C(c2cccc(OC)c2OC)C[C@@H]2CC[C@H]1N2C(=O)NCc1ccco1 | 10.6% |
| O=C(Nc1ccc(Br)cn1)c1cccc(C(=O)Nc2ccc(Br)cn2)c1 | 9.34% |
| Cc1ccc(-c2cc(C(=O)N/N=C/C=C/c3ccco3)c3ccccc3n2)cc1C | 9.75% |
| CCOc1ccc(/C=C/C(=O)Nc2ccc(N3CCOCC3)cc2)cc1 | 6.52% |
| CC(O)CNCCNCc1cccs1.Cl (stereo not shown) | 20.3% |
| CSc1ncc(Cl)c(C(=O)Nc2ccccc2Br)n1 | 16.6% |
| CCn1c(SCC(=O)Nc2nc(C)c(C)s2)nnc1-c1ccco1 | -68.8% |
| CC(C)(C)NC(=O)NC(=O)COC(=O)CNS(=O)(=O)/C=C/c1ccccc1 | 10.2% |
| O=C(O)C1CSCN1S(=O)(=O)c1cccc2nsnc12 (stereo not shown) | 11.3% |
| COc1ccc(S(=O)(=O)Nc2cc3c(cc2C(C)=O)OCO3)cc1 | 7.01% |
| CC(C)CN(CC(C)C)C(=O)CC(=O)NC(=O)c1ccc(Cl)cc1 | -21.2% |

| Compound | hERG current change (%, negative = inhibition) at 10uM |
| --- | --- |
| O=C(Nc1ccccc1)Nc1ccccc1C(=O)NCCCN1CCOCC1 | 19.3% |
| COc1cc(SC)ccc1C(=O)Nc1cccc(S(=O)(=O)NC2=NCCCCC2)c1 | 4.08% |
| CC1CCc2sc(C(=O)OCC(=O)NCc3ccc(F)cc3)cc2C1 (stereo not shown) | 4.79% |
| Cn1c(=O)c2cc(S(=O)(=O)NCCC(=O)NCC3CCCO3)ccc2n(C)c1=O (stereo not shown) | 4.49% |
| CCN(CC(=O)NCCCN1CCOCC1)S(=O)(=O)c1cc(Cl)ccc1Cl | 6.16% |
| COc1ccc(-c2ccc(SCC(=O)NC3CCCCC3)nn2)cc1 | 7.3% |
| CN(C)NC(=O)C12CCC(C)(C(=O)O1)C2(C)C (stereo not shown) | 66.3% |
| O=C(COC(=O)/C=C/c1ccc(S(=O)(=O)N2CCOCC2)cc1)NCc1ccc2c(c1)OCO2 | 7.21% |
| CCOC(=O)c1c(NC(=O)CSc2nnc(CNC(=O)c3ccco3)n2C)sc2c1CCC2 | -50.1% |
| O=c1c2ccccc2nc(CSc2ncnc3nc[nH]c23)n1-c1ccc(Cl)c(Cl)c1 | 5.27% |
| COC(=O)c1sccc1NC(=O)Nc1ccc(C)cc1C | 10.4% |
| Fc1cccc(CO/N=C/c2c(-c3ccccc3)nc3ccc(Cl)cn23)c1 | 9.63% |
| CCCCN1C[C@H](C)[C@@H](CC(=O)NCc2ccccc2)C1=O | -10.5% |
| CCCCCn1c(=O)c(C(=O)c2ccccc2)nc2ccccc21 | -77.6% |
| Cc1ccc(NC(=O)c2cncc(Br)c2)nc1 | -12.2% |
| NC(=O)c1c(NC(=O)COC(=O)CSc2nnc(-c3ccc(Cl)cc3)o2)sc2c1CCC2 | -1.29% |
| CC(C)NCCOCCOc1ccccc1F.O=C(O)C(=O)O | -0.805% |
| CCOC(=O)[C@@H]1[C@H]2COc3cc(OC)ccc3[C@@H]2N2C(=O)N(c3cccc(F)c3)C(=O)[C@]12C | -3.14% |
| COc1cccc(N=c2oc3cc(O)ccc3cc2C(=O)NCC2CCCO2)c1 (stereo not shown) | 23.4% |
| CC(C)c1ccc(NC(=O)CCC(=O)NCc2ccco2)cc1 | 4.11% |
| CC(NC(=O)C1CCCN(C(=O)c2ccc(Cl)cc2)C1)c1cccc(C(F)(F)F)c1 (stereo not shown) | -51.2% |
| Cc1cc(C(=O)NCc2ccccc2Br)no1 | -1.04% |

| Compound | hERG current change (%, negative = inhibition) at 10uM |
| --- | --- |
| O=C(O)C(=O)O.O=C(c1cccnc1)N1CCN(CCCc2ccccc2)CC1 | -19.9% |
| Cc1ccccc1C(=O)N1CCC(C(=O)Nc2ccc(S(=O)(=O)N3CCCCC3)cc2)CC1 | -26.1% |
| O=C(Nc1ncc(Cc2ccccc2Cl)s1)C1=NCCN1 | 13.3% |
| Cc1ccc2cccc(OCc3ccccc3)c2n1 | -6% |
| CCC(C)NC(=O)Cn1c(=O)n(CCCCC(=O)NCc2ccco2)c(=O)c2ccccc21 (stereo not shown) | -2.86% |
| Cc1ccc(OCC(=O)Nc2ccc(S(=O)(=O)Nc3cc(C)nc(C)n3)cc2)cc1 | 0.245% |
| CC(=O)c1nn(-c2cccc(Cl)c2)cc1C(=O)c1ccco1 | -1.01% |
| COc1ccc(-c2ccc(=O)n(CC(=O)NCc3ccco3)n2)cc1 | -7.39% |
| CC1CN(Cc2csc(-c3ccc(Cl)cc3)n2)CC(C)O1.O=C(O)C(=O)O (stereo not shown) | 10% |
| O=C(O)CC(NCc1ccco1)C(=O)OCCc1ccccc1 (stereo not shown) | 16.9% |
| O=C(Nc1ccc(N2CCOCC2)c(Cl)c1)c1ccccc1F | 3.56% |
| S=c1nc[nH]c2c1ncn2C1CCCO1 (stereo not shown) | 8.65% |
| CCOc1ccc(S(=O)(=O)N2CCC(C(=O)N3CCCCCC3)CC2)cc1Cl | -35.4% |
| COc1ccc(/C=C\C(=O)NCC(=O)N/N=C/c2cccc(OC)c2O)cc1 | -2.13% |
| CC(C)c1cc(CN2CCN(CCC#N)CC2)cc(C(C)C)c1O | -42.7% |
| Cc1ccc(S(=O)(=O)n2cccc2CO)cc1 | 6.71% |
| CC(Sc1nnc(C2CC2)n1C)C(=O)Nc1ccc2c(c1)CCC2 (stereo not shown) | -17.8% |
| C=CCc1cccc(/C=N/NC(=O)c2ccccc2Br)c1O | -50.2% |
| CC(=O)Nc1c(O)nc(SCC(=O)Nc2sc3c(c2C#N)CCCCCC3)[nH]c1=O | -1.23% |
| COCCN1Cc2cccc(C(=O)NCc3cccnc3)c2C1=O | 3.96% |
| CCCCN(C(=O)COC(=O)COc1c(C)cc(C)cc1C)c1c(N)n(CCC)c(=O)[nH]c1=O | 4.79% |
| COc1ccc([N+](=O)[O-])cc1NC(=O)C(C)OC(=O)C1CCC1 (stereo not shown) | -3.93% |
